The campaign covered roughly 410,000 compounds. About 7,200 (1.8%) were called active. This list was built around the results that the source calls inconclusive (neither active nor inactive); the mix of calls is not that of the screen. Calls follow the shape of the dose curve; as a rule, active = well fitted activation curve with a large enough effect; inconclusive = small, poorly fitted or top-dose-only effect, or another doubt; inactive = no such curve, though single readings can be large or run the other way. Potencies of inconclusive entries are doubtful fits and often do not repeat.
experiment: qHTS of TDP-43 Inhibitors; settings: TDP-43 expressing yeast growth rescue, BacTiter-Glo, 24 h; growth rescue (activation): at 46.1 µM (top of the series) unless noted; also: nearly all actives have a fitted effect of over 50% in size; as to growth rescue (activation): % of control where 0% means no effect
From the text: The goal of this project is to identify new chemical probes capable of reversing the toxicity associated with TDP-43 which is associated with frontotemporal lobar degeneration and amyotrophic lateral sclerosis. These compounds will provide a complementary approach to deciphering the tangled mechanisms of toxicity and protection that we have uncovered through genome-wide genetic screens and are beginning to uncover in a large-scale proteomics analysis with mass spectroscopy.
To this end, a miniaturized assay was developed to be screened against the Molecular Libraries Small Molecule Repository (MLSMR) to discover TDP-43 inhibitors. Please note that in the set-up this yeast-based assay compounds that inhibit as TDP-43, have a read-out as activators.
NIH Chemical Genomics Center [NCGC]
NIH Molecular Libraries Probe Centers Network [MLPCN]
Assay Submitter (PI): Susan Lindquist, Whitehead Institute/MIT
Dispense 2.5 microL yeast galactose medium per 1536-well plate, pin compound, dispense 2.5 microL TDP-43 expressing yeast in galactose medium at OD600=0.02 (pregrown in raffinose medium to mid-log phase) per well, incubate for 24 hr at 30 deg C, and cell growth will be measured using 5 microL of Bactiter/Glo reagent to entire plate and read using Luminescence Protocol in ViewLux.
Potency is read from the fitted curve at half-maximal effect; tags tell the direction and shape of the fitted curve.

Potency, active:
O=C(CSCc1ccc([N+](=O)[O-])cc1)NCCSCc1ccccc1 20 µM
CCOC(=O)C1=CN(Cc2cccc(F)c2)S(=O)(=O)NC1c1ccc(Br)cc1F (stereo not given) 15.8 µM
O=C(Nc1ccccc1)OCC1COC(c2ccccc2)(c2ccccc2)O1 (stereo not given) 20 µM
CCNc1nc(NC(C)C)nc(SCCOc2ccc(C)cc2)n1 12.6 µM
O=C(NC(=S)Nc1ccc(N2CCOCC2)c(Cl)c1)c1cncc(Br)c1 20 µM
O=C(CCNc1cc(Cl)cc(Cl)c1)c1ccco1 15.8 µM
COc1cccc([C@@H]2CC=C(C(=O)O)[C@H](c3ccc(Br)cc3)N2S(=O)(=O)c2ccc(C)cc2)c1 35.5 µM
Cc1cccc(NC(=O)c2cc3c(C)nn(-c4ccccc4)c3s2)c1 35.5 µM
Cc1csc(N/N=C/c2c(F)cccc2Cl)n1 28.2 µM
O=C(c1ccccc1Cc1ccccc1)N1CCN(S(=O)(=O)c2ccccc2Br)CC1 12.6 µM

Potency, inconclusive:
C=C1[C@@H](O)[C@H](Cc2ccccc2)N(Cc2ccccc2Br)S1(=O)=O 10 µM [activator, partial curve]
O=C(Nc1cccc(-n2cnnn2)c1)c1ccccc1Br 2 µM [activator, partial curve]
Cc1ccc(N(CC(=O)NCc2ccc(OC(C)C)cc2)S(=O)(=O)N(C)C)cc1 39.8 µM [activator, partial curve, poor fit]
Cc1cccc(Nc2nc(N)nc(-c3oc4ccccc4c3C)n2)c1 11.2 µM [activator, partial curve]
O=C(Cc1ccc(S(=O)(=O)N2CCOCC2)s1)OCc1ccc(Cl)cc1 35.5 µM [activator, partial curve]
C=CCn1c(CCC(=O)O)ccc1-c1ccc(OC)cc1 14.1 µM [activator, single point]
O=C(O)C1C(c2ccccc2)=C1c1ccc(Br)cc1 (stereo not given) 4.47 µM [activator, single point]
COC(=O)c1ccccc1NC(=O)CSc1c2c(nc3ccc(Cl)cc13)CCCC2 44.7 µM [activator, partial curve]
CCOc1cccc(-c2nc(C(N)=O)c3[nH]c(=O)n(-c4cccc(Cl)c4)c3n2)c1O 2.82 µM [activator, partial curve]
S=c1nc(-c2ccc(Br)cc2)oc2c1CCCC2 35.5 µM [activator, single point]
Cc1ccc(CSc2nc3cccnc3n2Cc2nc(-c3ccccc3F)oc2C)cc1 35.5 µM [activator, single point]
CCOc1ccc(-n2nc3ccc(NC(=O)COc4ccccc4C)cc3n2)cc1 6.31 µM [activator, partial curve, poor fit]
CCN(CC(=O)NCc1ccc(F)cc1)C(=O)Cc1ccc(OC)cc1 4.47 µM [activator, full curve, poor fit]
O=C(COC(=O)c1ccccc1Cl)NCCC1=CCCCC1 20 µM [activator, partial curve]
O=C(CSc1nc2ccc(Cl)cc2o1)NCc1ccc2c(c1)OCO2 6.31 µM [activator, partial curve]
COC(=O)c1ccc(SC2CCCCC2)c([N+](=O)[O-])c1 11.2 µM [activator, partial curve]
COc1ccc(-c2nc3ccc(C)cn3c2Cc2cccc(Cl)c2)cc1OC 17.8 µM [activator, partial curve]
Cc1c(C(=O)Nc2ccc(Br)cc2)cnn1C 14.1 µM [activator, partial curve]
CCOc1ccc(Br)cc1S(=O)(=O)NC1CCCC1 28.2 µM [activator, partial curve]
Clc1cccc(/C(Cc2nc3ccccc3[nH]2)=N\Nc2ccccc2)c1 14.1 µM [activator, single point]
CCC(C(=O)OCC(=O)Nc1cc(Cl)cc(Cl)c1)c1ccccc1 (stereo not given) 3.16 µM [activator, full curve]
COc1ccc(OC)c(/C=N/NC(=S)NCCc2ccccc2)c1 20 µM [activator, single point]
S=C(Nc1ccccc1)Nc1ccccc1-n1cccc1 14.1 µM [activator, single point]
COc1ccc(N2CCN(C(=O)c3cccnc3SCc3cccc(Br)c3)CC2)cc1 31.6 µM [activator, single point]
O=C(c1ccc(Cl)c(S(=O)(=O)N2CCCC2)c1)N1CCN(c2ccc(F)cc2)CC1 3.55 µM [activator, partial curve, poor fit]
O=C1CC(c2cccc(O)c2)Oc2ccccc21 (stereo not given) 35.5 µM [activator, single point]
CCOC(=O)Nc1c(Cl)[nH]c(=O)n(C)c1=O 3.98 µM [activator, single point]
C=CCNC(=O)c1onc(CSc2ccc(F)c(F)c2)c1C(=O)NCC=C 35.5 µM [activator, single point]
Cc1ccc2nc(NC(=O)C(NS(=O)(=O)c3cccc4nsnc34)C(C)C)sc2c1 (stereo not given) 12.6 µM [activator, partial curve]
CCc1ccc(S(=O)(=O)Nc2ccc3oc(C)c(C(=O)OCCOC)c3c2)cc1 31.6 µM [activator, single point]
Cc1cccc(N2CCN(C(=O)C3CCC(=O)N(C4CC4)C3)CC2)c1C (stereo not given) 22.4 µM [activator, single point]
CN1CCC(=C2c3ccccc3CC(=O)c3sccc32)CC1 35.5 µM [activator, partial curve, poor fit]
Fc1ccc(-n2ncc3c(NCCCc4ccccc4)ncnc32)cc1 2.51 µM [activator, full curve]
Cc1ccc2nc(-c3ccccn3)cc(C(=O)NCCc3ccc(F)cc3)c2c1 6.31 µM [activator, partial curve]
Cc1noc(C)c1C(c1ccccc1)S(=O)(=O)c1ccccc1 (stereo not given) 3.55 µM [activator, full curve]
Cc1ccc(Sc2c(C)nn(-c3ccccc3)c2OC(=O)CC(C)C)cc1 3.16 µM [activator, partial curve]
Cc1cc(NCc2ccccn2)n2c(nc3ccccc32)c1C#N 15.8 µM [activator, partial curve, poor fit]
CC(C)COc1ccc(-c2nnn(CC(=O)N3CCCC3)n2)cc1 15.8 µM [activator, single point]
Cc1ccc(C(=O)N/C(=C\c2ccco2)C(=O)NCCc2c[nH]c3ccccc23)cc1 15.8 µM [activator, single point]
COc1ccccc1C/C(N)=N/OC(=O)c1ccc(C)c([N+](=O)[O-])c1 3.55 µM [activator, single point]
Fc1ccc(N/N=C(/c2ccccc2)c2ccccn2)cc1 10 µM [activator, partial curve]

Potency, inactive:
O=C(NC1CC(=O)N(c2ccc(F)cc2)C1)C(c1ccccc1)c1ccccc1 (stereo not given)
Cc1cccc(Cc2c(C)nc3c(C(=O)N4CCN(Cc5ccc6c(c5)OCO6)CC4)cnn3c2C)c1
O=C(C1CC1)N1CCc2cc(Br)cc(S(=O)(=O)Nc3ccc(C(F)(F)F)cc3)c21
CCn1c(C)c(C(C)=O)c(N2CCCCC2)nc1=S
Cc1c2cnn(CC(=O)N3CCOCC3)c(=O)c2c(C)n1Cc1ccccc1F
Cc1cccc(CC(=O)Nc2cccc(-c3cn4cccnc4n3)c2)c1
CCOC(=O)c1oc2c(CN3CCN(C)CC3)c(O)c(CC)cc2c(=O)c1-c1nc2ccccc2s1
CC(=O)c1cccc(NC(=O)c2ccccc2N(C)S(=O)(=O)c2ccc(C)cc2)c1
CNc1cncc(-c2c(OC)cccc2OC)n1
O=c1cc(-c2ccccc2)nc(SCc2nc(-c3cccc(C(F)(F)F)c3)no2)[nH]1
COc1cccc(C(C(=O)NCc2ccco2)N(Cc2ccco2)C(=O)Cn2nnc3ccccc32)c1 (stereo not given)
CCC(C)(C)NC(=O)C(c1ccc(C)cc1)N(CC1CCCO1)C(=O)CCC(=O)Nc1ccccn1 (stereo not given)
COc1ccc(OC)c(CNc2ncc(-c3ccc(Cl)cc3)n2C)c1
CCOC(=O)c1cccc(NC(=O)NC2COc3ccccc3C2)c1 (stereo not given)
CSC1=NC(NCCCO)c2c(sc3c2CC(C)(C)OC3)N1 (stereo not given)

Growth rescue (activation), inconclusive:
Cc1ccc(S(=O)(=O)N2C[C@H]3n4c(=O)ccc(=O)n4C[C@H](OC(=O)NCc4ccco4)[C@@]3(O)C2)cc1 17.9% [activator]
C=CCn1c(O)c(C2=c3ccccc3=NC2=O)c2ccccc21 -55.9% [activator]
Cc1cccc(C)c1OCC(=O)NNC(=S)NC(=O)C1CC1 -62.9% [activator]

Growth rescue (activation), inactive:
O=C(Cc1ccc(F)cc1)NCCc1csc2nc(-c3ccc(Cl)cc3)nn12 0% [at 9.22 µM]
